Source: PubChem BioAssay (NCI)
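Exposure lasted 48 hours, with cells grown in 96-well plates and compounds tested at five concentrations. The concentration for 50% growth inhibition is given as GI50. TGI: total growth inhibition.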

tested on: NCI-H322M lung; experiment: DTP human tumour cell line panel, 48 h

`CCCCCc1ccc(S(=O)(=O)Nc2cccc(-c3csc(NCCN4CCN(C)CC4)n3)c2)cc1` and `CC(C)(C)c1cc(NC(=O)Nc2ccc(-c3cn4c5c(sc4n3)CCc3c[nH]cc3-5)cc2)no1` are within 1.5-fold of each other in GI50: 1.81 µM for the first, 2.14 µM for the second.

In the case of `NC(=O)c1c(NC(=O)c2cccc(C(F)(F)F)c2F)sc2c1CCC(=O)C2`, the GI50 is reported as greater than 100 µM.

Going from `CCCCCc1ccc(S(=O)(=O)Nc2cccc(-c3csc(NCCN4CCN(C)CC4)n3)c2)cc1` to `CC(C)(C)c1cc(NC(=O)Nc2ccc(-c3cn4c5c(sc4n3)CCc3c[nH]cc3-5)cc2)no1`, the TGI rises from 4.13 µM to greater than 50 µM.

`NC(=O)c1c(NC(=O)c2cccc(C(F)(F)F)c2F)sc2c1CCC(=O)C2` gave a TGI greater than 100 µM.
